Test results from PubChem BioAssay (NCI).
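Exposure lasted 48 hours, with cells grown in 96-well plates and compounds tested at five concentrations. Abbreviation: GI50, concentration required for 50% inhibition of growth. TGI denotes the concentration required for complete inhibition of growth.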

System: NCI-H322M lung
Experiment: NCI-60 cell line screen, 48 h

| SMILES | GI50 [µM] | TGI [µM] |
| --- | --- | --- |
| O=C(Nc1cccnc1)c1cccc([N+](=O)[O-])c1 | > 100 | > 100 |
| CC1C=CC(C)C2(O)C(=O)NC(O)C12 (configuration not stated) | – | > 100 |
| CC(=O)N1C(C(=O)NNc2ccccc2)CSC1c1ccccc1 (configuration not stated) | – | > 100 |
| Cc1cc(Cl)ccc1NC(=O)CC1SC(N)=NC1=O (configuration not stated) | – | > 100 |
| CS(=O)(=O)Nc1cccc(-c2ccc3c(NC(=O)C4CC4)n[nH]c3c2)c1 | > 25 | > 25 |
